# Results reported in patent publication US12447159B2 (AELIS FARMA, priority 2018, dated 2025).
# Experiments:
# [1] = tested on: reinstatement of THC-seeking; test: THC priming-induced reinstatement of THC-seeking in non-human primates; format: in vivo, Squirrel monkeys (Saimiri Sciureus); details: per os 4 h before testing; THC priming 0.04 mg/kg iv; monkeys
# Source text: Four male Squirrel monkeys (Saimiri Sciureus) were used because they are the species in which THC self-administration can be the most reliably studied.
# The monkeys used in the previous experiments underwent daily extinction sessions during which lever-presses led to vehicle infusions plus the visual cues previously paired with THC infusions, but not THC. […] THC priming injections were given immediately before the start of the test sessions. During testing, lever-presses (FR10) continued to produce only vehicle injections and the discrete cues.
# [2] = tested on: DHEA, allopregnanolone and testosterone; test: Conversion in downstream steroids, humans (GC/MS-MS); format: in vivo; details: 0.2, 0.6 and 2 mg/subject
# Protocol: In all these studies plasma concentrations of steroids were measured by gas chromatography-tandem mass spectrometry (GC/MS-MS).
# conscious dogs = test: Blood pressure, heart rate, electrocardiogram and body temperature in conscious dogs (telemetry, GLP)
# Protocol: The study was carried out following general requirements of GLP and the study design follows the ICH S7A guideline (2001) for Safety Pharmacology.
# The study involved 4 male Beagle which were previously instrumented with telemetry transmitters for arterial blood pressure, body temperature and electrocardiogram measurements.
# The study was conducted in two parts. […] Telemetry measurements of arterial blood pressure, heart rate, body temperature and electrocardiogram (epicardial Lead II) started at least 2 hours before each dosing and continued for at least 24 hours after dosing.
compound,measurement,setting,value
"COc1ccc(CO[C@H]2CC[C@@]3(C)C(=CC[C@H]4[C@@H]5CC[C@H](C(C)=O)[C@@]5(C)CC[C@@H]43)C2)cc1 [3pMBP, 3β-(4-methoxybenzyloxy)pregn-5-en-20-one]",% inhibition,[1],80%
same,ID50,[1],<1.5 µg/kg
same,ID100,[1],≤ 1.5 µg/kg
same,Changes in active steroids,[2],no changes in active steroids were observed
same,Heart rate high frequency rhythms and heart rate variability,"conscious dogs; 9 mg/kg only, dog",decrease in heart rate high frequency rhythms and oscillations associated with a decrease in heart rate variability
same,"Blood pressure, heart rate, electrocardiogram and body temperature","conscious dogs; 2, 9 and 36 mg/kg, single oral",did not modify
